Read counts are not given, so values of variants with three or more changes are uncertain.

The labels stand for the following.
B1: CPEB3 Ribozyme (parent)
chain: UAACAGGGGGCCACAGCAGAAGCGUUCACGUCGCAGCCCCUGUCAGAUUCUGGUGAAUCUGCGAAUUCUGCUGUAUAUCUC

Variants of B1 are the subject of the data set. Briefly: self-cleavage, relative activity (ratio to wild type); higher = more cleavage; in vitro, sequencing. In short, it runs like this:
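Libraries of CPEB3 self-cleaving ribozyme mutants came from rounds of error-prone PCR and carried barcodes, which DNA sequencing matched to variants. In vitro transcription used T7 RNA polymerase at 37°C for 5 hours, with a further 15 min in DNase I before EDTA stopped the reaction; the ribozymes cleaved during both steps. The RNA was reverse transcribed with template switching and sequenced on Illumina. Relative activity is the cleaved/total read fraction of a variant divided by that of the unmutated ribozyme, averaged over three batches with at least 5 reads.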
With UGACAGGGGGCCACAGCAGAGGCGUUCACGUCGCAGCCCCUGCCAGGUUCUGGUGAAUCCGCGAAUUCUGCUGUAUAUCAC [A2G A21G U43C A47G U60C U80A], the self-cleavage amounted to 0.33.

Take UGACAGGGGGCCACAGCAGAAGCGUUCACGUCGCAGCCCCUGUCAGAUUCUGGUGCAUCUGCGAAUUCUGCCGUUUAUCUC [A2G A56C U72C A75U]: the self-cleavage amounted to 0.15.

Turning to UGACAGGGGGCCACAGCAGAAGCGUUCACGUCGCAGCCCCUGUCAGGUUCUGGAGAAUCUGCGAAUUCUGCUGUAUACCUC [A2G A47G U54A U78C], the self-cleavage is 0.75.

Consider UGACAGGGGGCCACAGCAGAGGCGUUCACGUCGCAGCCCCUGUCAGAUUCUGGUGAAUCUGCGAAUUCUGCUGUAUACCUC [A2G A21G U78C], for which the self-cleavage turned out to be 0.21.

UGACAGGGGGCCACAGCAGAAGCGUUCACGUCGCGGCCCCUGUCAGAUUCUGGUGACCCUGCGAACUCUGCUGAAUACCUC [A2G A35G A57C U58C U66C U74A U78C]: the self-cleavage worked out at 0.1.

Consider UGACAGGGGGCCACAGCAGAAGCGUUCACGUCGCAGCCCCUGUCAGAUUCUGGUGGAUCUGCGGAUUCUGCUGUACAUCUC [A2G A56G A64G U76C], for which the self-cleavage stood at 0.12.

In the case of UGACAGGGGGCCACAGCAGAAGCGUUCACGUCGCAGCCCCUGUCAGAUUCUGGUGGAUCUGCGAAUUCUGCUCUAUAUCUC [A2G A56G G73C], the self-cleavage was found to be 0.94.

With UGACAGGGGGCCACAGCAGAAGCGUUCACGUCGCGGCCCCUGUCAGAUUCUGGUUAAUCUGCGUAUUCUGCUGUAUAUCUC [A2G A35G G55U A64U], the self-cleavage was determined as 0.2.

Regarding UGACAGGGGGCCACAGCAGAAGCGUUCACGUCGCCGCCCCCGUCAGAUUCUGGUGUAUCUGCGAAUUCCGCUGUAUAUCUC [A2G A35C U41C A56U U69C], the self-cleavage worked out at 0.15.

For UGACAGGGGGCCACAGCAGAAGCGUUCACGUCGCCGCCCCUGUCAGAUCCUGGUGAAUCUGCGAAUUCUGCUGUAUAUCUC [A2G A35C U49C], the self-cleavage came out at 0.34.

For UGACAGGGGGCCACAGCAGAAGCGUUCACGUCGCAGCCCCUGUCGGGUUGUAGUGAAUCUGCGAAUUCUGCUGUAUAUCUC [A2G A45G A47G C50G G52A], the self-cleavage was 0.19.

In the case of UGACAGGGGGCCACAGCAGAAGCGUUCACGUCGCAGCCCCUGUCAGAUUCUGGUGGAUCCGCGAAUUCUGCUGUAUAACUC [A2G A56G U60C U78A], the self-cleavage was determined as 0.14.

With UGACAGGGGGCCACAGCAGAUGCGUGCACGUCGCAGCCCCUGUCAGAUUCUGGUGAAUCUGCGAAUUCUGCCGUAUAUCAC [A2G A21U U26G U72C U80A], the self-cleavage came out at 0.06.

For UGACAGGGGGCCACAGCAGAAGCGUUCGCGUCGCAGCCCCUGUCAGAUUCUAGUGAAUCUGCGAAUUCUGCUGUAUAUCUC [A2G A28G G52A], the self-cleavage was found to be 0.33.

With UGACAGGGGGCCACAGCAGAGGAGUUCACGUCGCGGCCCCUGUCAGAUUCUGGAUAAUCUGCGAAUUCUGCUGUAUACCUC [A2G A21G C23A A35G U54A G55U U78C], the self-cleavage came out at 0.29.

UGACAGGGGGCCACAGCAGAAGCGUUCUCGUCGCAGCCCCUGUCAGAUUCUGGCGAAUCUGCGAAUUCUGCUGUAUAUCUC [A2G A28U U54C]: the self-cleavage was found to be 0.56.

On to UGACAGGGGGCCACAGCAGAAGCGUUCUCGCCGCAGCCCCUGUCAGAUUCUGGUGUAUCUGCGGAUUAUGCUGUAUAUCUC [A2G A28U U31C A56U A64G C68A], for which the self-cleavage turned out to be 0.06.

Regarding UGACAGGGGGCCACAGCAGAAGCGUUCACGUCGCAGCCCCUGUCAGCUUCUGGUGGAUCUGCGAAUUCUGCUGUAUAUCUC [A2G A47C A56G], the self-cleavage was 0.14.

Take UGACAGGGGGCCACAGCAGAAGCGUUCACGUCGCUGCCCCUGUCAGAUUCUGGUGAAUCCGCGAAUUCUGCUGUUCAUCUC [A2G A35U U60C A75U U76C]: the self-cleavage worked out at 0.26.

For UGACAGGGGGCCACAGCAGAAGCGUUCACGUCGCGGCCCCUGACAGAUUCUGGUGAAUCUGCGAAUUCUGCUGAAUAUCUC [A2G A35G U43A U74A], the self-cleavage was determined as 1.27.

Take UGACAGGGGGCCACAGCAGAGGCGUUCACGUCGCAGCCCCUGUCAGAUUCUGGAGAAUCUGCGAAUUCUGCUGUAUAUCCC [A2G A21G U54A U80C]: the self-cleavage stood at 0.32.

In the case of UGACAGGGGGCCACAGCAGAGGCGUCCACGUCGCAGCCCCUGUCAGAUUCUGGUGAAUCUGCGAAUUCUGCUGCAUAUCUC [A2G A21G U26C U74C], the self-cleavage amounted to 0.62.

As for UGACAGGGGGCCACAGCAGAAGCGUUCACGUCGCAGCCCCUGUCAGGUUCCGGUGAAUCUGCGAAUUCUGCUGUAUAUCUC [A2G A47G U51C], the self-cleavage stood at 0.55.

As to UGACAGGGGGCCACAGCAGAAGCGUUCACGUCGCAGCCCCUGUCCGAUUCUGGUGAACCUGCGAAUUCUGCUGUAUAUCUC [A2G A45C U58C], the self-cleavage was 0.16.

Take UGACAGGGGGCCACAGCAGAUGCGUUCUCGCCGCUGCCCCUGUCAGAUUCUGGUGCAUCUGCGAAUUCUGCUGUAUAUCUC [A2G A21U A28U U31C A35U A56C]: the self-cleavage turned out to be 0.07.

As to UGACAGGGGGCCACAGCAGAAGCGUUCACGUCGCUGCCCCUGUCAGAUUCUGGUCAAUCUGCGAUUACUGCUGUAUAUCUC [A2G A35U G55C A65U U67A], the self-cleavage was 0.29.

With UGACAGGGGGCCACAGCAGAAGCGUUCACGUCGCAGCCCCUGUCUGAUUCUGGUGUAUCUGCGAAUUCUGCUGUAAAUCUC [A2G A45U A56U U76A], the self-cleavage amounted to 0.08.

For UGACAGGGGGCCACAGCAGAAGCGUUCACGUCGCUGCCCCUGUCAGAUUCUAGUGAAUCCGCGAAUUCUGCUGUAUAUCUC [A2G A35U G52A U60C], the self-cleavage came to 0.54.

Consider UGACAGGGGGCCACAGCAGAAGCGUUCACGUCGCAGCCCCUGUCAGGUUCUGGUGAAUCUGCGAAUUCUGCAGUAUAUCCC [A2G A47G U72A U80C], for which the self-cleavage is 0.61.

For UGACAGGGGGCCACAGCAGAAGCGUUCGCGUCGCAGCCCCUGUCGGAUUCUGGUGAAUCUGCGAAUUCUGCUGUAUAUCUC [A2G A28G A45G], the self-cleavage worked out at 0.29.

Regarding UGACAGGGGGCCACAGCAGAAGCGUUCACGUCGCGGCCCCUGUCAGAUUCUGGUGAAUCAGCGAAUUCUGCCGUAUAUCUC [A2G A35G U60A U72C], the self-cleavage is 0.79.

As for UGACAGGGGGCCACAGCAGAAGCGUUCUCGUCGCAGCCCCUGCCAGAUUCUGGUGAAUCUGCGAAUUCUGCUGUAUAUCUC [A2G A28U U43C], the self-cleavage worked out at 0.43.

For UGACAGGGGGCCACAGCAGAAGCGUUCACGUCGCUGCCCCUGUCAGAUUCUGGUGAAUCUGCGAAUUCCGCUGUAUAUCUC [A2G A35U U69C], the self-cleavage amounted to 0.43.

On to UGACAGGGGGCCACAGCAGAAGCGUUCACGUCGCUGCCCCUGUCUGCUUUUGGUGAAUCUGCGUAUUCUGCUGUAUAUCUC [A2G A35U A45U A47C C50U A64U], for which the self-cleavage was 0.16.

The values above are taken from the RNAGym collection of RNA variant scans (doi:10.1093/nar/gkz1192).
